Assay results: PubChem BioAssay AID1814 (Broad Institute, 2009)
Out of some 300,000 compounds screened, about 22,000 (7.3%) were called active. This list was built around the results that the source calls inconclusive (neither active nor inactive); the mix of calls is not that of the screen. Cut-off read from the data, not from the text of the source: active = activity score below about -60%; inconclusive = mostly about -28% to -61%; inactive = positive scores.

Assay: Activators via SNCA 5'UTR binding, MLPCN (AID 1814)
Details: alpha-synuclein 5'UTR reporter, activators screen; stronger effect = lower value; tested at 7.5 µM

Compound | activity score
OC(COCC(F)(F)C(F)(F)C(F)(F)C(F)F)Cn1c2ccccc2c2ccccc21 (configuration not stated) | inconclusive: -60.8%
COc1ccccc1-c1cc(C(=O)NC2CCN(C)CC2)c2ccc(Cl)c(C)c2n1 | inactive: 101%
C=CCOc1ccc2nc(NC(=O)OC)[nH]c2c1 | inactive: 65.9%
COc1cc(OC)cc(-c2ncc3ccccn23)c1 | inconclusive: -56.8%
CCc1ccc(-c2nc(C(N)=O)c3[nH]c(=O)n(-c4ccccc4OC)c3n2)cc1 | inactive: 81.5%
C/C(=N\NC(=O)C1CCCN(S(=O)(=O)c2ccccc2)C1)c1ccccn1 (configuration not stated) | inactive: 66.7%
COc1ccc(Cl)cc1NC(=O)CN(C)CC(=O)Nc1ccccc1N1CCOCC1 | inactive: 112%
c1ccc(CNc2ccc3c(c2)ncn3C2CCCCC2)nc1 | inconclusive: -57%
O=C(Nc1ccc(Br)cn1)c1cccc(C(=O)Nc2ccc(Br)cn2)c1 | inconclusive: -54.5%
Cc1cc2cc(C=C(C#N)C#N)c(Cl)nc2cc1C | active: -74.8%
CC(C)CNC(=O)c1cc(-c2ccc3c(c2)OCO3)on1 | active: -100%
CCOC(=O)C(CC)/C(C)=N\NC(=O)c1ccccc1O (configuration not stated) | inactive: 93.5%
Cc1ccc(-c2n[nH]c(Cc3ccccc3)n2)cc1 | active: -126%
CCc1c(C)c2ccc(OCC(N)=O)cc2oc1=O | inconclusive: -33.8%
OCCN(/C=N/c1nc(-c2ccc(Br)cc2)cs1)CCO | active: -93.2%
COc1ccc(C2Nc3cccc4cccc(c34)N2)cc1 | inconclusive: -54.1%
NNC(=O)c1cccc(COc2ccc3c(c2)CCC3)c1 | inactive: 70.6%
CN(C)/C=C1\Oc2ccc3ccccc3c2C1=O | active: -116%
O=C(NCCc1ccc(Cl)cc1)C1CCC(CNc2nc(=S)[nH]c3ccccc23)CC1 (configuration not stated) | inactive: 64.5%
CCOc1cc(NC(=O)C2CC2)c(OCC)cc1NC(=O)c1ccccc1OCC | inconclusive: -38.4%
COc1ccccc1C(=O)Nc1cc2c(ccc3ccccc32)oc1=O | inconclusive: -55.8%
CC1=CN2C(=N)/C(=C/c3ccc([N+](=O)[O-])o3)C(=O)N=C2S1 | inconclusive: -55.6%
Cc1ccc(C(=O)N/N=C/c2ccc3c(c2)OCO3)o1 | inconclusive: -36%

Compound | activity score
COc1ccccc1Nc1nc(C2(C)CCC(=O)O2)cs1 (configuration not stated) | active: -106%
Cc1ccc(Cn2ccsc2=NC(=O)COC(=O)c2ccc(O)cc2O)cc1 | inconclusive: -58.6%
c1ccc2[nH]c(CSc3ncnc4c3oc3ccccc34)nc2c1 | inconclusive: -49.4%
Cc1c(-c2nc(N)nc(Nc3ccccc3)n2)oc2ccccc12 | active: -134%
Cc1c(C(=O)NCCc2ccc(Cl)cc2)sc2nc3n(c(=O)c12)CCC3 | inconclusive: -44.6%
CCOc1ccc(-c2nc(CSCC(=O)N3CCN(c4cccc(OC)c4)CC3)c(C)o2)cc1 | inactive: 68.5%
Cc1ccc(NC(=O)CCNC(=O)c2ccc(Cl)cc2)nc1 | active: -79.8%
Clc1cccc(/C=N/Nc2nc(Cl)nc3ccccc23)c1 | active: -172%
Cc1ccc2nc(NC(=O)C3CCCN3C(=O)OC(C)(C)C)sc2c1 (configuration not stated) | inconclusive: -47.5%
O=C(/C=C/c1ccc(Br)cc1)c1ccco1 | inconclusive: -51.5%
CN(C)CCCN(C(=O)c1ccc(S(=O)(=O)N(C)C)cc1)c1nc2ccc(F)cc2s1 | inconclusive: -57.4%
CCCCC(=O)Nc1ccc(NC(=O)c2ccc3c(c2)OCO3)cc1OC | inconclusive: -58.6%
COc1cccc(-c2cc(=O)c3cc(NC(=O)c4ccc(Cl)cc4)ccc3[nH]2)c1 | active: -68.4%
COc1ccccc1CNc1ncnc2c1cnn2-c1ccccc1 | inconclusive: -58.1%
O=C(N/N=C/c1cc([N+](=O)[O-])ccc1O)c1cc(-c2ccccc2)nc2ccccc12 | inactive: 81.3%
Nc1ccc2ncccc2c1 | inconclusive: -58.4%
O=C(c1ccc(S(=O)(=O)c2ccccc2Cl)c([N+](=O)[O-])c1)N1CCN(Cc2ccccc2)CC1 | inconclusive: -45.2%
Cc1ccc2nc(NC(=O)CSCC(=O)OCC(=O)c3ccccc3)sc2c1 | inactive: 61.7%
c1ccc(CCCc2nc(-c3ccccn3)no2)cc1 | active: -70%
O=C(Oc1c(CN2CCOCC2)cc(Cl)c2cccnc12)c1ccccc1F | inactive: 106%
Cc1cc(C)c2sc(NNC(=O)c3ccc(S(=O)(=O)N4CCc5ccccc5C4)cc3)nc2c1 | inactive: 77.4%
CC(C)N1CCc2c(sc(NC(=O)c3cc(-c4cccs4)nc4ccccc34)c2C(N)=O)C1 | inconclusive: -53.1%
Cc1ccc(C(=O)NNc2cc(N3CCCC3)nc(N3CCCC3)n2)cc1 | inactive: 73.7%

Compound | activity score
O=c1cnc(-c2ccc(Cl)cc2)cn1O | inconclusive: -32.1%
COc1cc(C2c3cc4c(cc3C(OC3OC5COC(c6cccs6)OC5C(O)C3O)C3COC(=O)C23)OCO4)cc(OC)c1O (configuration not stated) | inactive: 81.7%
Cc1ccc2nc(-c3cccc(S(=O)(=O)N4CCCC4)c3)cn2c1 | inconclusive: -47.9%
CN1C(=O)c2cccc3c(Br)ccc(c23)C1=O | inconclusive: -45.2%
O=[N+]([O-])c1cccnc1Sc1ccc(Br)cc1 | inactive: 49.5%
COc1ccc(C(=O)NNC(=S)NC(=O)C(C)(C)C)cc1 | inactive: 59.7%
CSC1=C(C#N)C(c2ccc(Cl)cc2)C2=C(CC(C)(C)CC2=O)N1 (configuration not stated) | inactive: 71.1%
COc1ccccc1C1CC(c2ccc(Br)cc2)=NN1C(=O)c1cccnc1 (configuration not stated) | inconclusive: -59.5%
CC(C)CN(C(=O)CSc1nc(-c2ccccc2)cn1N)c1c(N)n(Cc2ccccc2)c(=O)[nH]c1=O | inconclusive: -49.6%
S=c1nc[nH]c2nc[nH]c12 | inactive: 66.6%
O=C(N/N=C/c1ccc([N+](=O)[O-])o1)c1ccc2c(c1)OCO2 | inactive: 93.6%
CC(NC(=O)c1cc(=O)[nH]c2ccc(Br)cc12)c1ccccc1 (configuration not stated) | inconclusive: -34.1%
CCN(CC)CCNc1c2c(c(C#N)c3nc4ccccc4n13)CCCC2 | inconclusive: -49.9%
COc1cccc(NC(=O)Cc2nc(-c3ccccc3)sc2-c2ccc(C)cc2)c1 | inconclusive: -57%
C=CCNC(=S)N/N=C(\C)c1ccccn1 | inactive: 86.4%
O=c1nc(N2CCOCC2)ccn1Cc1ccc(Br)cc1 | inconclusive: -25.4%
Cc1cccc(-n2ncc3c(NCc4ccccc4)ncnc32)c1 | active: -140%
CCOc1ccc(Nc2cc(C)nc(-n3nc(C)cc3C)n2)cc1 | inactive: 62.9%
Cc1cc(NC(=O)c2ccc(Cl)cc2)c(C)cc1O | inconclusive: -45.9%
CCN(CC)CCOC(=O)c1ccc(NC(=O)CCCN2C(=O)S/C(=C/c3ccc(OC)cc3)C2=S)cc1 | inactive: 96.5%
CN1CCN(c2ccc(NC(=S)NC(=O)c3cccc4c(Cl)cccc34)cc2)CC1 | active: -128%
O=C(NCCc1ccccc1)c1ccc2c(c1)OCO2 | inactive: 90.9%
O=C(c1ccccc1)c1ccc2nc(-c3ccc(NC(=O)c4ccccc4Br)cc3)[nH]c2c1 | inactive: 75.1%

Compound | activity score
O=C(Nc1cccc(Br)c1)c1ccc(CN2CCc3ccccc3C2)cc1 | inconclusive: -61.2%
COc1cccc(/C=N/NC(=O)C(=O)Nc2ccccc2OC(F)(F)C(F)F)c1O | inactive: 71.5%
O=C(/C=C/c1ccc2c(c1)OCO2)c1ccc[nH]1 | active: -279%
O=C(N/N=C/c1ccc(OCc2ccc(F)cc2)cc1)c1ccccc1 | inconclusive: -51.2%
O=C(Nc1nc(-c2ccccc2)cs1)c1cccc(S(=O)(=O)N2CCN(Cc3ccccc3)CC2)c1 | inconclusive: -29.3%
COc1ccc2nc(NC(=O)CSc3nc(C)cc(=O)[nH]3)sc2c1 | inconclusive: -50.6%
Cn1c(N)c(C(=O)COC(=O)c2ncc(Cl)c(Cl)c2Cl)c(=O)n(C)c1=O | inconclusive: -42.7%
O=C(N/N=C/C(Cl)=C/c1ccccc1)c1cnccn1 | active: -102%
O=C(NCc1ccccc1)c1c(Cl)nc(Cl)c(Cl)c1Cl | inactive: 99.2%
CCOc1ccccc1C(=O)Nc1ccsc1C(=O)OC | inactive: 65.3%
Clc1cncc(Cl)c1N/N=C/c1ccccc1 | inconclusive: -59.5%
CN(C)/N=C/c1ccc([N+](=O)[O-])cc1[N+](=O)[O-] | inconclusive: -32.4%
CCOc1cc(/C=C2/C(=N)N3C=CSC3=NC2=O)ccc1OCCCOc1ccccc1C | inconclusive: -60.1%
Cc1nc(NC(=O)c2ccccc2)sc1-c1csc(Nc2cccc(Cl)c2)n1 | inconclusive: -47.2%
O=c1nc2n(c3c1oc1ccccc13)Cc1ccccc1-2 | inconclusive: -58.2%
O=C(c1cc2nc(-c3ccccc3)cc(C(F)(F)F)n2n1)N1CCOCC1 | inconclusive: -47.6%
CC(C)C(=O)N1CCN(c2ccc(NC(=O)c3ccc4c(c3)OCCO4)cc2Cl)CC1 | active: -109%
Oc1ccc(Nc2nc3ccccc3nc2Nc2ccc(O)cc2)cc1 | inactive: 108%
Oc1c(N=Nc2ccccn2)ccc2ccccc12 | inactive: 73.7%
CNC(C)C#Cc1ccc2sc3cccc(OC)c3c(=O)c2c1 (configuration not stated) | inconclusive: -35%
O=C(Nc1ncc([N+](=O)[O-])s1)c1ccc2c(c1)OCO2 | inactive: 103%
Cc1nc(SCc2cccc(Oc3ccccc3)c2)n[nH]1 | inconclusive: -56.7%
COn1c(-c2ccc(Cl)cc2)nc2ncccc21 | active: -107%
